Experimental data published in PubChem BioAssay AID1671188 (National Center for Advancing Translational Sciences (NCATS), 2021).
Where “and” joins values, the source holds several entries; their conditions need not be identical. Equal values may be shown once. The whole screen tested about 100,000 compounds, of which about 250 (0.25%) were called active. Inconclusive means that the source gave no clear call. Such entries were picked first, then a sample of the others. The call rests on the fitted dose curve; in most records, active means well fitted inhibition curve with a large enough effect; inconclusive means small, poorly fitted or top-dose-only effect; inactive means flat fitted curve, though single readings scatter. Potencies of inconclusive entries are doubtful fits and often do not repeat. The source holds several records for some structures; these can differ, active in one and inactive in another.

Target: Alanine aminotransferase 2 (Homo sapiens) (UniProt Q8TD30)
Assay: Primary qHTS assay for inhibitors of Glutamate pyruvate transaminase 2 (GPT2); further: nearly all actives have a fitted effect of over 60% in size
Conditions: Recombinant GPT2, coupled pyruvate oxidase/HRP Amplex Red fluorescence; series mostly up to 57.7 µM
How it was run: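 Fluorescence read-out: pyruvate from GPT2 turnover coupled to pyruvate oxidase, HRP and Amplex Red (0.2mM ThPP, 0.2U/mL PO and HRP, 50uM Amplex final). Substrates 250uM a-KG, 2mM L-alanine; enzyme 10ng/uL; 30 min RT.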
Potency means the concentration at half of the fitted maximal effect; tags describe the fitted curve by direction and shape.

Sequence of UniProt Q8TD30 (Q8TD30 whole entry, looked up): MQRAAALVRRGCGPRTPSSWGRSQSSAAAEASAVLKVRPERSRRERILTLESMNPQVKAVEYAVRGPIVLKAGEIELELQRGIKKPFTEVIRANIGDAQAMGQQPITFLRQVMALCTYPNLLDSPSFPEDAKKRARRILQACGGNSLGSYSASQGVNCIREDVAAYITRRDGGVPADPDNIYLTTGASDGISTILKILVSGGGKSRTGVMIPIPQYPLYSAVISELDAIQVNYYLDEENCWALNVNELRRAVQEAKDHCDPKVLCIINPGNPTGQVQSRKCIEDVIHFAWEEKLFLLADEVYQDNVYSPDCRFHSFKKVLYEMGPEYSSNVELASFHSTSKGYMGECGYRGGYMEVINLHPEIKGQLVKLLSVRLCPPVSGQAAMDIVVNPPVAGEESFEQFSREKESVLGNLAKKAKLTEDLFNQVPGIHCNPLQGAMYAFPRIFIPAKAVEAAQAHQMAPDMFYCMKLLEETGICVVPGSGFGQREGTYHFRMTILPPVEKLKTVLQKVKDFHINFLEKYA

SMILES | Potency
O=C1CC2(CCN(C(=O)C3CCCN3C(=O)c3ccccc3F)CC2)Oc2ccccc2N1 (centres undefined) | inactive
O=C(NCc1cccc(F)c1)C1CCN(Cc2ccccc2-c2cccnc2)CC1 | inactive
COc1ccccc1-c1cnc2n[nH]c(-c3ccccc3)c2n1 | inactive
Cc1nc(-c2ccc(F)cc2)n(Cc2nc(-c3ccc(OC(C)C)cc3)oc2C)c(=O)c1CCO | inconclusive: 1.41 µM [inhibitor, full curve, poor fit]
CCN1CCN(CCNC(=O)[C@H]2CCC[C@H]2NC(=O)c2ccncc2)CC1 | inconclusive: 39.8 µM [inhibitor, partial curve, poor fit]
Cc1cnc(NC(=O)c2ccc3c(c2)OCCN(Cc2ncccn2)C3)s1 | inactive
Cc1nccn1CCNC(=O)CCC[C@H]1NC[C@@H]2C[C@H]1CN(Cc1ccccc1)C2 | inactive
CC(C)c1cc(C(=O)N2C[C@@H](C)[C@](O)(C3CC3)C2)nc2ncnn12 | inconclusive: 39.8 µM [inhibitor, partial curve, poor fit]
CN(C)C(=O)c1ccc(-c2ccc3ncn(-c4ccc(F)cc4F)c(=O)c3n2)cc1 | inconclusive: 31.6 µM [inhibitor, partial curve, poor fit]
CC1=NOC(C(=O)N2CCOc3c(O)cc(-c4nc(C)cnc4C)cc3C2)C1 (centres undefined) | inactive
Cn1cnc(S(=O)(=O)N2CCC(N3C(=O)C(OCC4CC4)C34CCCCC4)CC2)c1 (centres undefined) | inconclusive: 28.2 µM [inhibitor, single point]
COc1ccc(-c2cc(N3CCCN(C(=O)c4ccc(Br)cc4)CC3)n[nH]2)cc1 | inactive
C[C@]1(O)CC[C@@H]2C(C(=O)O)=CO[C@@H](O[C@@H]3O[C@H](COC(=O)/C=C/c4ccc(O)c(O)c4)[C@@H](O)[C@H](O)[C@H]3O)[C@@H]21 | inconclusive: 14.1 µM [inhibitor, single point]
COc1ccc(C(=O)N2CCC3(CC2)NC(=O)N(c2ccccc2)N3)cc1 | inconclusive: 28.2 µM [inhibitor, single point]
Cc1ccsc1C(=O)N1CCC(c2nc(C3CCOCC3)no2)CC1 | inconclusive: 3.55 µM [inhibitor, single point]
Cc1cc(CNC(=O)Cc2ccc(-n3cnnn3)cc2)c2[nH]c(C)c(C)c2c1 | inactive
COc1ccc(-c2cc(C(=O)NCc3cccc(OC)c3)c3cnn(C)c3n2)cc1 | inactive
O=C(c1ccc2[nH]ccc2c1)N1CC(CO)C2(CCNCC2)C1 (centres undefined) | inconclusive: 0.794 µM [inhibitor, full curve, poor fit]
COc1ccc(-c2cc(N3CCC(NC(=O)c4ccc(F)cc4F)CC3)n[nH]2)cc1 | inactive
COCCOC(=O)C1=C(C)NC(C)=C(C(=O)OC/C=C/c2ccccc2)C1c1cccc([N+](=O)[O-])c1 (centres undefined) | inconclusive: 39.8 µM [inhibitor, partial curve, poor fit]
c1ccc(CN2CCNc3cc(-c4ccncc4)ncc3C2)cc1 | inconclusive: 56.2 µM [inhibitor, single point]
Cc1cc(CS(=O)(=O)c2ccccc2)cc(OCc2ccc(CN3CCC[C@H]3CO)cc2)c1 | inconclusive: 43.2 µM [inhibitor, single point]

SMILES | Potency
CCOc1nc2cccc(C(=O)O)c2n1Cc1ccc(-c2ccccc2-c2noc(=O)[nH]2)cc1 | inconclusive: 25.1 µM [inhibitor, single point]
CN1C(=O)C(c2ccccc2)CC12CCN(C(=O)c1ccc(C#N)cc1)CC2 (centres undefined) | inconclusive: 7.08 µM [inhibitor, single point]
CO[C@H]1C(=O)N(C(C)C)[C@H]1C1CCN(C(=O)c2cc(C)n(C)n2)CC1 | inactive
O=C(Nc1ccc(Oc2ccccc2)cc1)N[C@H]1CO[C@H]2[C@@H]1OC[C@@H]2n1cc(-c2ccccc2)nn1 | inconclusive: 22.4 µM [inhibitor, partial curve, poor fit]
O=S1(=O)OC(c2ccc(O)cc2)(c2ccc(O)cc2)c2ccccc21 | inconclusive: 39.8 µM [inhibitor, single point]
CCn1ccc(C(=O)N2CCCN(c3cc(-c4ccc(OC)cc4)[nH]n3)CC2)n1 | inconclusive: 12.6 µM [inhibitor, partial curve]
CC(=O)NCCC(=O)N1Cc2ccccc2CC2(CCCN(Cc3cccnc3)C2)C1 (centres undefined) | inconclusive: 39.8 µM [inhibitor, single point]
Cc1cc([C@@H](C)Nc2ccccc2C(=O)O)c2nc(N3CCOCC3)cc(=O)n2c1 | inconclusive: 0.014 µM [inhibitor, full curve, poor fit]
O=C(NC1CCN(Cc2ccc(-c3ccsc3)cc2)C1)c1ccccc1F (centres undefined) | inactive
COc1ccc(OC)c(S(=O)(=O)N2CCCCCCNC(=O)[C@@H]3CCCC[C@@H]32)c1 | inactive
CCc1nnc(CNC(=O)c2cn(CCN3CCNCC3)nn2)s1 | inactive
CN(C)CC(=O)N1CC(F)(F)C[C@H]1c1nc(-c2ccncc2)no1 | inconclusive: 6.31 µM [inhibitor, single point]
CC(C)c1nc(NCc2ccccc2Cn2cccn2)c2cnn(C)c2n1 | inconclusive: 28.2 µM [inhibitor, single point]
CC(C)(Cc1ccc2ccccc2c1)NC[C@@H](O)COc1cccc(Cl)c1C#N | inconclusive: 1.09 µM [inhibitor, full curve, poor fit]
COCc1cc(C[C@@H]2C[C@H](NC(=O)c3ccnc(Cl)c3)C2(C)C)no1 | inconclusive: 56.2 µM [inhibitor, single point]
Cc1cc(C(F)(F)F)nc(CCNC(=O)C2CC3(CCNCC3)CN2)n1 (centres undefined) | inconclusive: 39.8 µM [inhibitor, partial curve, poor fit]
CO[C@@]12[C@H](COC(N)=O)C3=C(C(=O)C(C)=C(N)C3=O)N1C[C@@H]1N[C@@H]12 | active: 13.7 µM
COCCN1C[C@H]2CN(C)c3ccccc3[C@@H]2N(C(=O)c2ccc(OC)cc2)CCC1=O | inactive
CN(C(=O)c1ccccc1)C1CCOc2ccccc21 (centres undefined) | inconclusive: 56.2 µM [inhibitor, single point]
COc1ccc2c(C)c(C(=O)NCc3nc(-c4ncccn4)no3)oc2c1 | inconclusive: 7.08 µM [inhibitor, single point]
C=CCN(C)C(=O)[C@@H]1Cc2cn(Cc3cc(C)on3)c3cccc(c23)[C@H](CC(C)C)N1 | inconclusive: 56.2 µM [inhibitor, single point]
COc1cccc(CNC(=O)c2cn3cc(-c4cccc(OC)c4)sc3n2)c1 | inconclusive: 39.8 µM [inhibitor, single point]

SMILES | Potency
Cc1cc2nc3n(c(=O)c2n1CC(=O)NC1CCc2ccccc21)CCCC3 (centres undefined) | inactive
CN1CCCN(S(=O)(=O)c2ccccc2Br)c2ccccc21 | inconclusive: 39.8 µM [inhibitor, single point]
COc1ccc(CN2C(=O)COC[C@H]2C(=O)NCc2ccc(F)cc2F)cc1OC | inconclusive: 39.8 µM [inhibitor, single point]
CC1(C)[C@H](Cc2cc(CC3CCCCC3)on2)C[C@@H]1NC1CCOCC1 | inconclusive: 12.6 µM [inhibitor, single point]
CN(C)c1ccc(C(=O)NCC2CCN(c3cc(-c4ccc(F)cc4)[nH]n3)CC2)cc1 | inconclusive: 17.8 µM [inhibitor, partial curve, poor fit]
COc1ccc(Nc2cnc3ccc(N(C)Cc4cccnc4)nn23)cc1 | inactive
O=C(NCc1cccs1)c1nc(-c2ccc(F)cc2)c2cnccn12 | inconclusive: 20 µM [inhibitor, partial curve, poor fit]
C[C@H](Nc1ncnc2nc[nH]c12)c1cc2ccc(F)cc2nc1-c1ccccn1 | inconclusive: 39.8 µM [inhibitor, partial curve, poor fit]
Cc1ccc(CN2CC[C@@H]3C(=O)NCCCCCCN(Cc4ccncc4)[C@@H]3C2)o1 | inconclusive: 6.31 µM [inhibitor, single point]
Cc1cccc(-c2noc(-c3nnn4c3COC(c3ccc(F)cc3)C4)n2)c1 (centres undefined) | inconclusive: 1.58 µM [inhibitor, partial curve, poor fit]
COc1cccc(-c2noc(Nc3ccc4c(c3)OCCO4)n2)c1 | inconclusive: 39.8 µM [inhibitor, partial curve, poor fit]
Cc1nnc(NS(=O)(=O)c2ccc(N)cc2)s1 | inconclusive: 794 nM [inhibitor, full curve, poor fit] and inconclusive: 15.3 µM [inhibitor, single point]
O=C(CCC1CCCN(Cc2cn[nH]c2-c2ccc(F)cc2)C1)Nc1ccccc1F (centres undefined) | inactive
Clc1cc(NC2CCCCCC2)n2nccc2n1 | inactive
Cc1noc(C)c1C(=O)N1CCC2(CC1)CN(C(=O)c1ccc(Cl)cc1)CCO2 | inactive
COc1cc(NS(C)(=O)=O)ccc1Nc1c2ccccc2nc2ccccc12 | inconclusive: 11.2 µM [inhibitor, partial curve, poor fit]
COCCOCC(=O)N1CCCCCC1c1nnc(-c2ccccc2)o1 (centres undefined) | inconclusive: 39.8 µM [inhibitor, single point]
COc1ccc(CNC(=O)[C@H]2CNC[C@H](C(=O)N3CCCC3)C2)c(F)c1F | inactive
COc1ccc(CN2Cc3cc(NC(=O)Cc4ccccc4)ccc3OC(C)C2=O)cc1 (centres undefined) | inactive
COc1ccc(-c2cc(C(=O)NCC3CC3)c3c(C4CCNC4)noc3n2)cc1 (centres undefined) | inconclusive: 0.708 µM [inhibitor, full curve, poor fit]
